From PMC4336329 (PLoS ONE, 2015)
About 14,000 (4.5%) of roughly 310,000 compounds showed an effect of 50% or more. The effect is printed as a negative number. This is one part of the list.

Target: human ether-à-go-go-related gene (hERG) potassium channel (human, UniProt Q12809)
Assay: primary screen, population patch clamp on CHO cells stably expressing hERG
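Also: peak tail current of the secondary pulse compared with the same well before compound.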

Sequence of human ether-à-go-go-related gene (hERG) potassium channel (Q12809 whole entry, looked up): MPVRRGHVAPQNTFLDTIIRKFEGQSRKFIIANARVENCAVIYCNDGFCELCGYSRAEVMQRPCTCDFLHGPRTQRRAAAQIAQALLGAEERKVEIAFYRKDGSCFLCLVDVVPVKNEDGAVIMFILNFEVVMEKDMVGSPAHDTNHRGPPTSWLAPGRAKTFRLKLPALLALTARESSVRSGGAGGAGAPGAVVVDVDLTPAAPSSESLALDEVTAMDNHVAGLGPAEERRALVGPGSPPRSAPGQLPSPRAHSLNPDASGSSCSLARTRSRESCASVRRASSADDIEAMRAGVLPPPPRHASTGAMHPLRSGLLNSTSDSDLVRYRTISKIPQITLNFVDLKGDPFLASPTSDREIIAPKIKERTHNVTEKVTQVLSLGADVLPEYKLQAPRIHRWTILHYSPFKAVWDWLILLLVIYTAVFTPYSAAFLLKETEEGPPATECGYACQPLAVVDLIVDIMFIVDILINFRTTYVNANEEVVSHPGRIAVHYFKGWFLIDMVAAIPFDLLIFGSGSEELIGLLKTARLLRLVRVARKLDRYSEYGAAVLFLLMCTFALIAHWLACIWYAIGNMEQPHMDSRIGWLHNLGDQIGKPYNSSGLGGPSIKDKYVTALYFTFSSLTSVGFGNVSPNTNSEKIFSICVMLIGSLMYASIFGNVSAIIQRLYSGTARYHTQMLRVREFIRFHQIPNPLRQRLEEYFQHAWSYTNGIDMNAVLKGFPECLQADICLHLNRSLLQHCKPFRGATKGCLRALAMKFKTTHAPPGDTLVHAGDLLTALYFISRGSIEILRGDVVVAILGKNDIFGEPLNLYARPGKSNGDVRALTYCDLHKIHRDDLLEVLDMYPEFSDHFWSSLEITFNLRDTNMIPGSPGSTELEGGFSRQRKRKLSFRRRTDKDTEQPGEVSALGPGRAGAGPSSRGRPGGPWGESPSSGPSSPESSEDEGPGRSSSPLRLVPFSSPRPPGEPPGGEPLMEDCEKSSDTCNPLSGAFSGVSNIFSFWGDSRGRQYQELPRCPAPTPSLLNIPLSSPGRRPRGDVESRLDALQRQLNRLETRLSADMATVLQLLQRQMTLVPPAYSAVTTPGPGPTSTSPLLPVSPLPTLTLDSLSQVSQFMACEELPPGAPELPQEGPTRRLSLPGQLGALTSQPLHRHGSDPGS

Compared with `CN(C(=O)c1cccc(C#N)c1)c1nnc(C2CCOC2)s1` (stereo not shown), `O=C(Nc1cccc2nsnc12)c1ccc2c(c1)OCCO2` is higher in “hERG current change (%, negative = inhibition) at 10uM” value: -0.542% for the first, 8.64% for the second.

Compared with `COc1cc(Br)cc(/C=N/N(CCO)C2=NS(=O)(=O)c3ccccc32)c1OC`, `COc1cc(Cc2cnc(N)nc2N)cc(OC)c1OC` is higher in “hERG current change (%, negative = inhibition) at 10uM” value: -30.8% for the first, -7.16% for the second.

Going from `O=C(C/C=N\OCc1ccc(Cl)cc1Cl)Nc1ccccc1` to `O=C(/C=C/c1ccccc1Cl)Nc1cccc(O)c1`, the “hERG current change (%, negative = inhibition) at 10uM” value rises from 8.61% to 11.2%.

First: Cn1nnc(NC(=O)c2cccc(F)c2)n1
Second: O=C(CSc1ccc2nnc(-c3cccnc3)n2n1)Nc1cccc(F)c1
The “hERG current change (%, negative = inhibition) at 10uM” value of the first is higher: 16.6% for the first, -43.6% for the second.

First: Cc1ccc2nc(SCC(=O)c3ccc(Cl)cc3)nc(=O)n2c1
Second: O=C(CCSc1ccc(Cl)cc1)c1ccco1
The “hERG current change (%, negative = inhibition) at 10uM” value of the first is higher: -7.93% for the first, -25.2% for the second.

Compared with `CCOc1ccc(NC(=O)CCCCn2c(=O)[nH]c3ccsc3c2=O)cc1`, `COc1ccc(NC(=O)C(CC(=O)O)Cc2ccc(C)cc2)cc1` (stereo not shown) is higher in “hERG current change (%, negative = inhibition) at 10uM” value: -30.3% for the first, 7.47% for the second.

Going from `CC(C)c1nc(SCC(=O)N2CCCC2)c2ccccc2n1` to `Cc1sc2nc(C3CC3)nc(SCC(=O)N3CCc4ccccc4C3)c2c1C`, the “hERG current change (%, negative = inhibition) at 10uM” value rises from -10.3% to 17.2%.

Compared with `FC(F)(F)c1cc(-c2cccs2)nc(-n2cc(Cl)cn2)n1`, `O=C1CCCN2N=C(SCC(=O)Nc3cccc(Cl)c3)SC2=N1` is lower in “hERG current change (%, negative = inhibition) at 10uM” value: 0.253% for the first, -8.34% for the second.

First: Cc1cc(C)c(C)c(S(=O)(=O)N2CCN(C(=O)c3ccco3)CC2)c1C
Second: Cc1ccc(S(=O)(=O)N2CCOCC2)c(C)c1NS(C)(=O)=O
The “hERG current change (%, negative = inhibition) at 10uM” value of the first is lower: -23.5% for the first, 18.7% for the second.

First: Br.c1ccc2c(CCNCc3ccc4c(c3)OCO4)c[nH]c2c1
Second: O=C(Nc1ccc2c(c1)OCO2)Oc1ccccc1
The “hERG current change (%, negative = inhibition) at 10uM” value of the first is lower: -8.18% for the first, -7.16% for the second.

Compared with `O=C(NCCc1ccccc1)c1nc2c(nnn2Cc2ccccc2Cl)c(=O)[nH]1`, `Cc1ccc(NC(=O)NCCCc2ccccc2)cc1` is lower in “hERG current change (%, negative = inhibition) at 10uM” value: -2.86% for the first, -7.34% for the second.

First: Cc1ccccc1C(=O)N1CCC(C(=O)NC(C)c2ccc(-n3ccnc3)cc2)CC1 (stereo not shown)
Second: CC(C)(C)c1ccc(C(CC(=O)O)NC(=O)c2ccccc2F)cc1 (stereo not shown)
The “hERG current change (%, negative = inhibition) at 10uM” value of the first is lower: -23% for the first, 22.8% for the second.

Compared with `O=C(O)c1cccc(S(=O)(=O)Nc2ccc([N+](=O)[O-])cc2O)c1`, `C/C(=N\NC(=O)c1ccc([N+](=O)[O-])cc1)c1c(O)cc(C)oc1=O` is higher in “hERG current change (%, negative = inhibition) at 10uM” value: 5.03% for the first, 34.8% for the second.

Going from `N/C(Cc1cccc2ccccc12)=N\O` to `NS(=O)(=O)c1ccc(S(=O)(=O)NCCc2ccccc2)cc1`, the “hERG current change (%, negative = inhibition) at 10uM” value rises from 2.9% to 7.05%.

First: COc1ccc(C2=NN(C(=O)CSc3nc4ccccc4s3)C(c3ccc(OC)cc3)C2)cc1 (stereo not shown)
Second: Cc1ccc(C(=O)N2N=C(c3ccccc3O)CC2c2ccccc2)cc1 (stereo not shown)
The “hERG current change (%, negative = inhibition) at 10uM” value of the first is lower: 6.16% for the first, 14.6% for the second.

Compared with `CCN1C(=O)[C@@H]2[C@H](C1=O)[C@@H]1C[C@H]3C(=O)N(CC)C(=O)[C@H]3[C@@H]3C1=C(C(=O)N1C(=O)OC(=NCC4CC4)[C@]31C)[C@@H]2C`, `Cc1ccccc1NC(=O)CN1C(=O)C2C3CC(C(Br)C3Br)C2C1=O` (stereo not shown) is lower in “hERG current change (%, negative = inhibition) at 10uM” value: 17.9% for the first, 8.43% for the second.

First: Cc1cccc(C)c1NS(=O)(=O)c1ccc(-c2ccc(=O)[nH]n2)o1
Second: Cc1ccc(S(=O)(=O)Nc2c(NC3CCCCC3)c3ccccc3oc2=O)cc1
The “hERG current change (%, negative = inhibition) at 10uM” value of the first is lower: -46.2% for the first, -33.9% for the second.

Going from `CC(=O)OC1CSC2c3ccccc3C(=O)N2Cc2sccc21` (stereo not shown) to `O=C(CN1C(=O)c2ccccc2C1=O)Nc1nccs1`, the “hERG current change (%, negative = inhibition) at 10uM” value rises from 1.4% to 16.2%.

Going from `Cc1nc2ccc(Br)cn2c1NC(C)(C)C` to `Cc1cc(N)n(-c2ccc(Cl)cc2)n1`, the “hERG current change (%, negative = inhibition) at 10uM” value rises from -20.9% to 2.71%.

Going from `Cc1cc(Nc2ccccc2)n2nc(C)c(-c3ccccc3)c2n1` to `[Br-].c1ccc(-c2c[n+]3c(n2-c2ccccc2)CCC3)cc1`, the “hERG current change (%, negative = inhibition) at 10uM” value falls from 2.79% to -3.72%.

Going from `Cc1[nH][nH]c(=O)c1N=Nc1ccc(Cl)cc1` to `Cc1cc(C)n2nc(N)c(N=Nc3ccc(Cl)cc3)c2n1`, the “hERG current change (%, negative = inhibition) at 10uM” value falls from 2.19% to -13.8%.

Going from `Cc1ccc(S(=O)(=O)NC2c3cccc4cccc(c34)C2Sc2nc(C)cc(C)n2)cc1` (stereo not shown) to `Cc1ccc(S(=O)(=O)Nc2ccc(Oc3cccnc3)nc2)cc1`, the “hERG current change (%, negative = inhibition) at 10uM” value rises from -36.2% to 8.86%.

Going from `Cc1c(C(=S)NC(=O)C2CC2)c(=O)n(-c2ccccc2)n1C` to `O=C1CN(C(=O)c2ccccc2)c2ccccc2N1`, the “hERG current change (%, negative = inhibition) at 10uM” value falls from 29.3% to -3.79%.

Compared with `COc1ccc2oc(C(F)(F)C(F)F)cc(=O)c2c1`, `CC(Oc1ccc2ccc(=O)oc2c1)C(=O)N1CCOCC1` (stereo not shown) is higher in “hERG current change (%, negative = inhibition) at 10uM” value: 1.41% for the first, 7.76% for the second.

Going from `CC1CCN(S(=O)(=O)c2ccc(NC(=O)C3CSC4(C)CCC(=O)N34)cc2)CC1` (stereo not shown) to `COc1cc(/C(C)=N/NC(=O)CN2CCN(S(=O)(=O)c3ccc(C)cc3)CC2)ccc1O`, the “hERG current change (%, negative = inhibition) at 10uM” value falls from -6.34% to -11.6%.

Going from `CN(C)c1cccc2c(/C=N/O)ccc(N(C)C)c12` to `Cc1cc(/C=C2\SC(=S)N(C)C2=O)c(C)n1-c1cccc(O)c1`, the “hERG current change (%, negative = inhibition) at 10uM” value falls from -10.3% to -29.9%.

Compared with `Cc1ccc(S(=O)(=O)N2CCN(CC(O)COc3ccccc3)CC2)cc1` (stereo not shown), `COc1ccc(N2CCN(CC(O)COc3ccc4c(c3)CCC4)CC2)cc1.Cl` (stereo not shown) is lower in “hERG current change (%, negative = inhibition) at 10uM” value: -16.2% for the first, -48.3% for the second.

Going from `O=C(CCN1C(=O)C2C3C=CC(C3)C2C1=O)NCc1cccnc1` (stereo not shown) to `O=C(CNCCc1ccccc1)N1CCc2ccccc2C1.O=C(O)C(=O)O`, the “hERG current change (%, negative = inhibition) at 10uM” value falls from 14.2% to -29.4%.

First: CC1(C)CC(N(Cc2ccc(F)cc2)C(=O)c2ccc(F)cc2)CCO1 (stereo not shown)
Second: COc1ccc(-c2nc(CS(=O)(=O)CC(=O)NCc3ccc(F)cc3)c(C)o2)cc1
The “hERG current change (%, negative = inhibition) at 10uM” value of the first is lower: -14.4% for the first, 14.8% for the second.

Compared with `Cn1nc(-c2ccc(Cl)cc2)c2cc(C(=O)N3CCN(c4ccccn4)CC3)sc21`, `Cc1cccc(C(=O)N2CCC(=O)N(C(COCc3ccc(Cl)cc3)Cc3ccccc3)CC2)c1` (stereo not shown) is lower in “hERG current change (%, negative = inhibition) at 10uM” value: 2.09% for the first, -25.7% for the second.

Compared with `Cc1cc(C)cc(Oc2ncnc3c2ncn3Cc2c(Cl)cccc2Cl)c1`, `CCCn1cnc2cc(NCc3cccc(OC)c3)ccc21` is lower in “hERG current change (%, negative = inhibition) at 10uM” value: -8.98% for the first, -67.2% for the second.

Going from `COCCn1c(C)cc(C(=O)COC(=O)C2CC(=O)N(CCc3ccc(OC)c(OC)c3)C2)c1C` (stereo not shown) to `CCOc1ccc(CCNC(=O)COC(=O)Cn2cnc3c2c(=O)n(C)c(=O)n3C)cc1OCC`, the “hERG current change (%, negative = inhibition) at 10uM” value rises from -0.473% to 9.06%.

Compared with `CC(C)C[C@H](NC(=O)OC(C)(C)C)C(=O)N1CCC(C(=O)N[C@@H](Cc2c[nH]c3ccccc23)C(=O)O)CC1`, `COC(=O)C1=C(C)NC(C)=C(C(=O)OC)C1c1ccc(OC(=O)c2oc3ccccc3c2C)c(OC)c1` is lower in “hERG current change (%, negative = inhibition) at 10uM” value: 18.8% for the first, 18.1% for the second.

First: Cc1ccc2nc(-c3ccccc3)c(CN3CCN(c4ccccc4F)CC3)n2c1
Second: CCCCCn1c(CN2CCN(c3cccc(Cl)c3)CC2)nc2c1c(=O)n(C)c(=O)n2C
The “hERG current change (%, negative = inhibition) at 10uM” value of the first is higher: 1.85% for the first, -35.3% for the second.

First: O=S(=O)(NC1CCCCC1Nc1ccccc1)c1ccccc1 (stereo not shown)
Second: O=C(CCc1ccccc1)NC1CCCc2ccccc21 (stereo not shown)
The “hERG current change (%, negative = inhibition) at 10uM” value of the first is higher: 6% for the first, -2.04% for the second.

Compared with `CC(=O)Oc1ccc(-c2cccc(C(=O)OCC(=O)N(C)c3ccccc3)c2)cc1`, `CCOc1ccc(C2C(C#N)=C(C)NC3=C2C(=O)c2ccccc23)cc1` (stereo not shown) is higher in “hERG current change (%, negative = inhibition) at 10uM” value: -8.25% for the first, -5.93% for the second.

Compared with `Cc1cccc(C)c1Nc1nnc(SCC(=O)NC2CCS(=O)(=O)C2)s1` (stereo not shown), `Cc1ccc(S(=O)(=O)CCC(=O)OCC(=O)NC2CCS(=O)(=O)C2)cc1` (stereo not shown) is higher in “hERG current change (%, negative = inhibition) at 10uM” value: 1.96% for the first, 11.1% for the second.

First: Cc1cc(C)nc(/N=C(\N)Nc2ccc([N+](=O)[O-])cc2)n1
Second: CC(C)CN(CC(C)C)C(=S)Nc1ccc(Cl)cc1
The “hERG current change (%, negative = inhibition) at 10uM” value of the first is lower: -25% for the first, 13.6% for the second.

Compared with `CCCCCCCCCCCCCCCC[n+]1cccc(C(=O)N(CC)CC)c1.[Br-]`, `CCCCCCc1cc2cc(C(N)=O)c(=N)oc2cc1O` is higher in “hERG current change (%, negative = inhibition) at 10uM” value: -69.7% for the first, -59.8% for the second.

Compared with `CCOc1ccc2[nH]c3c(NCCN(CC)CC)ncnc3c2c1`, `CCN(CC)CCN(Cc1cc2cc3c(cc2[nH]c1=O)OCO3)C(=S)NCCOC` is higher in “hERG current change (%, negative = inhibition) at 10uM” value: -71.6% for the first, 5.9% for the second.

Going from `Cc1csc2c(N(C)CCO)ncnc12` to `Cc1cc(Cl)ccc1OC(C)C(=O)O` (stereo not shown), the “hERG current change (%, negative = inhibition) at 10uM” value falls from 14.7% to 2.78%.

Compared with `COc1ccc(C(=O)NCc2nnc(SCC(=O)Nc3ccc4c(c3)OCO4)o2)cc1`, `COC(=O)c1c(NC(=O)CC2Nc3ccccc3NC2=O)sc(C)c1C` (stereo not shown) is higher in “hERG current change (%, negative = inhibition) at 10uM” value: 8.82% for the first, 11.1% for the second.

Compared with `O=C(c1ccccn1)N(Cc1ccco1)C1(C(=O)NC2CCCCC2)CCCCC1`, `S=c1[nH]nc(C2CCCCC2)n1/N=C/c1cccc(Br)c1` is lower in “hERG current change (%, negative = inhibition) at 10uM” value: 10.9% for the first, 6.65% for the second.

First: CCOC(=O)n1c(=O)oc2ccccc21
Second: CN(C)c1nc(SCCOC(=O)COc2ccc(Cl)cc2Cl)nc(N(C)C)n1
The “hERG current change (%, negative = inhibition) at 10uM” value of the first is higher: 0.065% for the first, -10.2% for the second.
